This note sets out measurements from the supplement of paper PMC11417369.

± gives the standard deviation of the averaged measurements. The list shows a part of the results.

This experiment relates to PfAP2-G AP2 domain (GST-tagged). Put plainly: gcPBM binding intensity (ln(normalized median fluorescence intensity)); higher = stronger DNA binding. The method in brief:
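The highest Masliner-normalised natural-log median intensity across replicate spots of either probe orientation is reported as binding intensity. GST-tagged P. falciparum DNA-binding domains expressed in E. coli were applied for 1 h to an Agilent 4 × 180k array of primer-extended double-stranded 36-bp intergenic genomic probes plus negative controls, and bound protein was detected with Alexa488 anti-GST antibody and scanned at 488 nm.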
With “TAATACAGATTAAAAGGTACACTTATTTGGTATTAT [XGTACX_site4966]”, the “gcPBM binding intensity (ln)” value worked out at 11.1 ± 0.66. Under “TTAATATGAATTATTACATGCAACTAAATATATTTA [TGCATGCA_site490]” stands 9.83 ± 0.028; under “TTGACAACTCTTTTCATACACACAAAAAAAAAAAAA [CACACA_site2362]”, 10.1 ± 0.51. For the sequence “TCTATACCTATTCTTACACACATATGTATAAATATA [CACACA_site6407]”, the “gcPBM binding intensity (ln)” value came to 10.2 ± 0.14. For “ACTAAAAAAATAAACACACAGATTTATATAATATAT [CACACA_site4884]”, the “gcPBM binding intensity (ln)” value was 9.96 ± 0.014. In the case of “ACTAATAAAGGTGTAATACACACTATAAAAAGGAAT [CACACA_site1124]”, the “gcPBM binding intensity (ln)” value amounted to 10.2 ± 0.13. With “AAAAAAAAAACACGCGCACACACACCCACCCACCCA [CACACA_site8689]”, the “gcPBM binding intensity (ln)” value stood at 10.8 ± 0.4.

As to “GAGAGGTATCAAAAATGTACACATATATATATGTAT [XGTACX_site5611]”, the “gcPBM binding intensity (ln)” value turned out to be 11.2 ± 0.71.

With “TTTTTTCTTTATTATGGTACGTATAAAAAAATTATA [XGTACX_site3433]”, the “gcPBM binding intensity (ln)” value came to 11 ± 0.71. Turning to “ATATATAATATATATTGTACAGGTATGTCTATAAAT [XGTACX_site2243]”, the “gcPBM binding intensity (ln)” value turned out to be 10.9 ± 0.47.

“TATAAAATTTTTAAAAGTACATATTTTACATAATAC [XGTACX_site2193]”: the “gcPBM binding intensity (ln)” value was 11.1 ± 0.72. Under “ATTATTCCATATTATTGTACTTTAATTTTTTAAACC [XGTACX_site2960]” stands 11.3 ± 0.81; under “TTTTTATCAACAAATAATACCATAACTCATATTTAT [CACACA_negctrl_site740]”, 9.915 ± 0.049; under “TATATATATCTGTATACACACATACAAATATGTAAA [CACACA_site5950]”, 10 ± 0.34. With “GATATTCATTATATATGTACATATATGTAATATATA [XGTACX_site2210]”, the “gcPBM binding intensity (ln)” value is 11 ± 0.6. Take “TATTAAAGCACCCATGCACACACACTAAGGAAAAGA [CACACA_site7961]”: the “gcPBM binding intensity (ln)” value amounted to 10.3 ± 0.39. Regarding “AGAAAAAAATAATCATCACACACGGAGAATGTCCAA [CACACA_site2314]”, the “gcPBM binding intensity (ln)” value stood at 10.05 ± 0.014. Turning to “GAAAATAACTAAAATTGTACAAAGAAACATATATTT [XGTACX_site6484]”, the “gcPBM binding intensity (ln)” value was determined as 10.7 ± 0.29.

With “ATATATTTTTTTTTTTCACACATTAGGATTCATATA [CACACA_site5758]”, the “gcPBM binding intensity (ln)” value amounted to 9.91 ± 0.11.

As to “ATCATATGTATGGTGGTGCATTATGCATGAATTTTA [GTGCAC_site9798]”, the “gcPBM binding intensity (ln)” value stood at 10.1 ± 0.18.

Turning to “TAATAATATATAAAAAGTACATAACAAGATATGAAA [XGTACX_site4921]”, the “gcPBM binding intensity (ln)” value is 11.3 ± 0.94. Take “TATATAAACCCACCTACACACACAACGTAAATGCAT [CACACA_site8702]”: the “gcPBM binding intensity (ln)” value amounted to 10.2 ± 0.14. Turning to “ATTATTATATTCAAATGTACTTAATAAACATTTTAA [XGTACX_site3023]”, the “gcPBM binding intensity (ln)” value was 10.8 ± 0.67. Take TTTATCTAAATATGTGTGCACTCGTTAATTTTTTTT: the “gcPBM binding intensity (ln)” value was found to be 10.4 ± 0.23.

Take “GTAATTATACATATTACACACTCTCTTGATCTTTTT [CACACA_site7756]”: the “gcPBM binding intensity (ln)” value was determined as 9.86 ± 0.13. On to “TATATAAAGAAACACACACACACCTTATAATTATTA [CACACA_site4062]”, for which the “gcPBM binding intensity (ln)” value was found to be 10.01 ± 0.071.

“TGTTGATTTATCCTGTGTACGGATATATATCTTTCA [XGTACX_site7826]”: the “gcPBM binding intensity (ln)” value was 11.1 ± 0.78.

Turning to “TAAAGAATATTATAAACACACACTTTATAAAGAATT [CACACA_site114]”, the “gcPBM binding intensity (ln)” value came out at 9.875 ± 0.078. Take “TTCTATTTATATGTGGGTACTAATTTTTTTTCTTTT [XGTACX_site7104]”: the “gcPBM binding intensity (ln)” value was 11.1 ± 0.64.

Take “CTTAAATTAATTTGGGTGCATATATTTGTACACATT [GTGCAC_site9948]”: the “gcPBM binding intensity (ln)” value amounted to 11.5 ± 1. For “TCCTTATTTCATATTTTTAAATAATACAAAAAAAAA [CACACA_negctrl_site773]”, the “gcPBM binding intensity (ln)” value is 9.87 ± 0.38. For the sequence “GAATATTAAATATTATCACACACATAATTATTTCCA [CACACA_site8730]”, the “gcPBM binding intensity (ln)” value was 9.88 ± 0.15. Turning to “ATATATATTTATAATCGTACGTACCTAACAATACAA [XGTACX_site4510]”, the “gcPBM binding intensity (ln)” value came to 11.3 ± 0.77. With “AAATAAAAAAAAGCCTGTACATGTTCATAAATTTTT [XGTACX_site7925]”, the “gcPBM binding intensity (ln)” value came out at 10.9 ± 0.5. Consider “TATTAATTTTTTTTTTTTTTTTTTTTTTTTTTTTTT [CACACA_negctrl_site1329]”, for which the “gcPBM binding intensity (ln)” value was determined as 11 ± 0.61. Take “GTTATAAATAATAAATAAATAATCAAATGAAGAATG [CACACA_negctrl_site653]”: the “gcPBM binding intensity (ln)” value was determined as 9.87 ± 0.11. The figure for “TGAATAAAATATTATACACACATATGTATATAACAT [CACACA_site974]” is 9.94 ± 0.071; for “TTAATTTTTTTTTAAACACACATTTTTTTATTTAAG [CACACA_site2738]” it is 9.91 ± 0.028. Take “TATGCAATAAAATATACACACAATATACTTATATAT [CACACA_site7691]”: the “gcPBM binding intensity (ln)” value worked out at 9.805 ± 0.064.

“TTTATTTTCCAAAGGGTGCACATAGTTAAAACGATA [GTGCAC_site9855]”: the “gcPBM binding intensity (ln)” value turned out to be 10.8 ± 0.86. Under “AGGAGGATAGTTCACAGTACCCAGGAAATCTGCGGA [XGTACX_site4928]” stands 10.7 ± 0.4; under “GCTATAAATATAATCACACATAAATATATAATATAT [CACACA_site5144]”, 9.765 ± 0.035; under “ATAAATATACCAATCGGTACACATTTATACAAACAA [XGTACX_site7484]”, 11 ± 0.64. The figure for “AATAAATACACATACACACACGACGCTAGTATATGT [CACACA_site6627]” is 10 ± 0.16. Regarding “AGAATAAATATGTGGTGTTATAGTATTAATGTTAAT [TGCATGCA_negctrl_site62]”, the “gcPBM binding intensity (ln)” value came to 10 ± 0.099. Under “AACAGGTCATAATTTACACACTATATATTTTATTAT [CACACA_site670]” stands 10.1 ± 0.11; under “TAACATATGGGACACACATGCAACTGTTATATGTCC [TGCATGCA_site959]”, 10.8 ± 0.21; under “AGAAAACATATGTTTTGTACTTAAGAAAAAAAAAAA [XGTACX_site4231]”, 11 ± 0.68.

In the case of “ATCTATATTCATAATACACACATTCTGTAGCATTAT [CACACA_site7058]”, the “gcPBM binding intensity (ln)” value was 10.02 ± 0.035. Under “TGATTAATTTTTAAATGTACTTAAAAATATACTTAT [XGTACX_site2872]” stands 11.2 ± 0.93; under “TATATCATATAAAACCGTACATACATACTTAATTGT [XGTACX_site6822]”, 10.9 ± 0.59. Take “AAAAAAAAATTAAAATGTACACATAAAAAAAAAAAA [XGTACX_site794]”: the “gcPBM binding intensity (ln)” value came to 11.3 ± 0.81.

On to “AAAAATAAATAAATATGTACATATATACATATATAT [XGTACX_site5892]”, for which the “gcPBM binding intensity (ln)” value is 11 ± 0.51.

Consider “TTTTATATGTTATATACACACATATAAATAAATATA [CACACA_site7418]”, for which the “gcPBM binding intensity (ln)” value was found to be 9.915 ± 0.064. In the case of “TGATGAAAATCTACATGAATGTTTTTATATCTATAT [GTGCAC_negctrl_site139]”, the “gcPBM binding intensity (ln)” value turned out to be 9.52 ± 0.2.

With “TACAAATATATATGCACACACATATACATACAGATA [CACACA_site5238]”, the “gcPBM binding intensity (ln)” value stood at 10.1 ± 0.3. With “CATATATACGCATACACACACACACCCACACCCACA [CACACA_site1725]”, the “gcPBM binding intensity (ln)” value was determined as 10.6 ± 0.52.
